These results are taken from PubChem BioAssay AID1745853 (National Center for Advancing Translational Sciences (NCATS), 2022).

Experiment in all cases: Primary Screen for Target Class Profiling of Small Molecule Inhibitors of Methyltransferases
Test [1] concerns the target Glycine N-methyltransferase (Homo sapiens) (UniProt Q14749). The note with it: purified enzyme, MTase-Glo SAH luminescence; measured here: GNMT inhibition; at 40 µM; stronger effect = lower value. In a few lines: (§1)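 Each enzyme was assayed with SAM and its substrate. SAH formation detected by MTase-Glo luminescence; single-point 40 uM screen[…].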
In test [2] the target is Guanidinoacetate N-methyltransferase (Homo sapiens) (UniProt Q14353). The note with it: purified enzyme, MTase-Glo SAH luminescence; measured here: GAMT inhibition; at 40 µM; stronger effect = lower value. In a few lines: as §1
Test [3] has as its target Histamine N-methyltransferase (Homo sapiens) (UniProt P50135). The note with it: purified enzyme, MTase-Glo SAH luminescence; measured here: HNMT inhibition; at 40 µM; stronger effect = lower value. In a few lines: as §1
Test [4] has as its target Nicotinamide N-methyltransferase (Homo sapiens) (UniProt P40261). The note with it: purified enzyme, MTase-Glo SAH luminescence; measured here: NNMT inhibition; at 40 µM; stronger effect = lower value. In a few lines:
as §1

Test [5] has as its target Phenylethanolamine N-methyltransferase (Homo sapiens) (UniProt P11086). The note with it: purified enzyme, MTase-Glo SAH luminescence; measured here: PNMT inhibition; at 40 µM; stronger effect = lower value. In a few lines: as §1

Molecules are shown by their SMILES. “And” between values parts separate entries of the source, which are not always exact repeats. Equal values may be shown once. Some of the results follow. The main result of the screen is listed elsewhere. These columns were measured beside it and carry no call.
% is set by controls: 0 for no effect and ±100 for the full control effect.

In the case of `Cc1ccc(C)c(NC(=O)N2C[C@H](c3nc(-c4cccnc4)no3)[C@@H](C)C2)c1`, the activity change, negative = inhibition is -8.14% in test [1]; -9.45% in test [2]; -4.51% in test [3]; -32.9% in test [4]; -11.2% in test [5].
Turning to `CCOCCCNC(=O)C1c2c(n(C)c3ccccc23)SCC(=O)N1c1ccc2c(c1)OCO2` (centres undefined), the activity change, negative = inhibition in test [1] was 3.23%; in test [2], 0.533%; in test [3] it was 2.54%; in test [4], -4.52%; in test [5], -1.54%.
For `CN(CC[C@H]1CN(C(=O)Cc2cccs2)CC[C@H]1CC(=O)O)c1ccccc1` the same measures were -10.4%, -2.64%, -1.79%, 0.151% and 1.8%.
Regarding `COc1ccc(CCNC(=O)Cn2ccc3cc(S(=O)(=O)N4CCCCC4)ccc32)c(OC)c1`, the activity change, negative = inhibition in test [1] is 0.298%; in test [2] it was 1.25%; in test [3] it was -13.1%; in test [4] it was -10.7%; in test [5] it was -4.76%.
In the same order, the values of `COc1ccc(CC(=O)N2C[C@@H](C(=O)O)[C@H](c3ccccc3)C2)c(OC)c1` are -2.04%, -1.15%, 1.38%, -0.625% and 5%.
For `CCC(C)NC(=O)c1ccc2c(=O)n(C)c3nnc(SCC(=O)Nc4ccccc4OC)n3c2c1` (centres undefined) the same measures were 3.93%, 0%, 2.43%, 4.82% and 0.656%.
In the same order, the values of `C=CCNC(=O)C(NC(=O)c1cccs1)C1CCN(C(=O)c2ccc(F)cc2)CC1` (centres undefined) are -6.08%, 2.4%, 0.825%, -1.92% and 8.2%.
`CN(C)c1ccc(C(=O)N2CCN3C(=O)N(CC(N)=O)C(=O)[C@@H]3C2)cc1`: the activity change, negative = inhibition is 0.15% in test [1]; 0.513% in test [2]; 2.1% in test [3]; -3.63% in test [4]; 1.85% in test [5].
As for `CCN1C(=O)c2cc(C(=O)NCc3ccc(OC)cc3OC)nn2CC1(C)C(=O)NC1CCCC1` (centres undefined), the activity change, negative = inhibition is 5.15% in test [1]; 0.586% in test [2]; 4.6% in test [3]; -4.81% in test [4]; 4.33% in test [5].
`Cc1ccccc1N1C(=O)c2cc(-c3cccs3)nn2CC1(C)C(=O)NC1CCCCCC1` (centres undefined): the activity change, negative = inhibition in test [1] is -9.41%; in test [2], 0%; in test [3], -3.27%; in test [4], -1.24%; in test [5] it was -4.12%.
Consider `CN(C)CCOc1cc(-c2cn[nH]c2)ccc1NC(=O)C1COc2ccccc2O1` (centres undefined), for which the activity change, negative = inhibition in test [1] was -0.674%; in test [2] it was 0.484%; in test [3], -6.3%; in test [4], -17.1%; in test [5], 0.887%.
For `COc1cccc(N2CCN(C(=O)CCc3nnc4n(Cc5ccc(C)cc5)c(=O)c5ccccc5n34)CC2)c1` the same measures were -1.24%, 0%, -0.495%, -9.17% and -8.87%.
For `CC1(NC(=O)c2ccc(C#Cc3cccc(F)c3)cn2)COC1` the same measures were -2.35%, -1.9%, 0.675%, -40.9% and -4.31%.
Take `COCCCNC(=O)c1ccc2nnc(Cc3ccc(Cl)cc3)n2c1`: the activity change, negative = inhibition in test [1] was -8.41%; in test [2] it was -7.67%; in test [3] it was -17%; in test [4] it was -8.53%; in test [5] it was -4.15%.
For `O=c1c2ccccc2n2c(=O)n(Cc3ccc(Cl)cc3)nc2n1CCc1ccccc1` the same measures were -4.61%, -6.73%, 7.75%, -12% and -5.45%.
In the same order, the values of `O=C(NC1CCCC1)N1CCCC(C(=O)N2CCC(c3nc4ncccc4[nH]3)C2)C1` (centres undefined) are -6.97%, -6.21%, -6.52%, -14.6% and 6.01%.
For `CCCn1cc(NC(=O)C[C@H]2NC(=O)c3ccccc3NC2=O)c(C)n1` the same measures were -4.83%, -6.71%, -2.52%, -11.4% and -18.4%.
Take `NCCCCN`: the activity change, negative = inhibition is 4.29% in test [1]; 10.3% in test [2]; 6.4% in test [3]; -9.08% in test [4]; -3.15% in test [5].
In the same order, the values of `COc1cc2c(c(OC)c1CC=C(C)C)C[C@H](c1ccc(O)cc1O)CO2` are -4.58%, 3.01%, 1.47%, -10.7% and -7.82%.
In the same order, the values of `Cc1ccc(C(=O)Cn2nc3n(Cc4ccccc4)c(=O)c4ccccc4n3c2=O)cc1` are -8.49%, 1.6%, -0.776%, -6.44% and -4.04%.
`CCc1ccc(CN2C(=O)c3cc4ccccc4n3CC2(C)C(=O)NCc2ccccc2)cc1` (centres undefined): the activity change, negative = inhibition in test [1] is -0.924%; in test [2], 4.12%; in test [3] it was 3.37%; in test [4] it was -7.5%; in test [5] it was -2.25%.
In the case of `CC[C@@H]1C(=O)N(C)c2cnc(Nc3ccc(C(=O)NC4CCC(N5CCN(CC6CC6)CC5)CC4)cc3OC)nc2N1C(C)C` (some centres undefined), the activity change, negative = inhibition in test [1] is -32.8%; in test [2], -8.54% and -11.7%; in test [3], -37.2%; in test [4], -46.2% and -45%; in test [5] it was -28.1% and -29%.
`O=C([C@@H]1CNC[C@H](C(=O)N2CCN(c3nccs3)CC2)C1)N1CCCC1`: the activity change, negative = inhibition is -6.6% in test [1]; -9.63% in test [2]; -3.91% in test [3]; -16.5% in test [4]; -24.1% in test [5].
In the same order, the values of `Cc1nnc2n1CCC(NS(=O)(=O)c1ccccc1F)CC2` (centres undefined) are -4.29%, -0.949%, -2.56%, -2.99% and 7.28%.
On to `O=C(C=CC#Cc1cccc(NS(=O)(=O)c2ccccc2)c1)NO`, for which the activity change, negative = inhibition in test [1] was -4.58%; in test [3] it was -0.422%; in test [4], 8.85%; in test [5], 38.9%.
Consider `Cn1c(=O)c2ccc(C(=O)NC3CCCC3)cc2n2c(SCC(N)=O)nnc12`, for which the activity change, negative = inhibition in test [1] is -0.376%; in test [2], 0%; in test [3], 11.7%; in test [4], 0.356%; in test [5], 7.11%.
In the same order, the values of `Cc1ccc(CNC(=O)N2CCCC(c3nn[nH]n3)C2)cc1` (centres undefined) are -0.154%, 3.17%, 3.07%, -7.88% and 5.07%.
In the same order, the values of `Cc1ccccc1C(=O)Nc1ccc(C(=O)N2CCCC(N(C)C)c3ccccc32)cc1` (centres undefined) are -1.18%, 6.07%, -28.7%, -15% and -0.709%.
For `O=C(NC1CCCN(c2ccc3nnc(-c4ccccc4)n3n2)C1)c1ccc(F)cc1` (centres undefined) the same measures were -4.36%, 1.54%, 1.47%, -1.76% and 4.33%.
On to `Cc1cccc(-c2[nH]ncc2-c2ccc3ncccc3n2)n1`, for which the activity change, negative = inhibition in test [1] was -6.24%; in test [2] it was -0.545%; in test [3] it was -2.62%; in test [4], -11.3%; in test [5], -5.13%.
